The record followed here is article PMC10668032.

The list shows a part of the results. At the low end of the ranking, values are background and their order means little.

The assay addresses SIX1-Q177R homeodomain (UniProt Q15475). In words: universal protein binding microarray. Particulars: Universal all-10-mer PBM (8x60K, AMADID 030236), 300 nM GST-tagged protein, Alexa Fluor 488 anti-GST; buffer, salt, pH and temperature not stated; high values mean tight binding; most listed sequences are background and not binding sites; double strand, one strand shown.
In the case of CCGAGGAC, the binding signal is 0.0693 E-score.

For the sequence AACAACCC, the binding signal was 0.124 E-score.

Take AACTGGAC: the binding signal is -0.209 E-score.

As to ATACTTGG, the binding signal is -0.0975 E-score.

As to CCACCCGG, the binding signal was found to be 0.201 E-score.

GCACCAGA: the binding signal was determined as 0.181 E-score.

On to TATGATCA, for which the binding signal was -0.133 E-score.

With ATCGAACA, the binding signal worked out at 0.108 E-score.

On to CCTAACGA, for which the binding signal is -0.306 E-score.

On to GAGAGACC, for which the binding signal was -0.186 E-score.

With CAAGTAAG, the binding signal worked out at 0.00724 E-score.

As for AAATGGGG, the binding signal was -0.0278 E-score.

Regarding ATCTTGAG, the binding signal turned out to be 0.00769 E-score.

For the sequence CTGTCTTA, the binding signal was -0.123 E-score.

AGGTGACC: the binding signal was -0.00822 E-score.

Turning to TCCTCAAA, the binding signal was -0.0927 E-score.

Take CGAGTGGA: the binding signal was 0.166 E-score.

For ACACCGCT, the binding signal was 0.466 E-score.

For CTCGACGC, the binding signal was -0.0736 E-score.

Consider AATACGAT, for which the binding signal was determined as 0.0826 E-score.

GTCATGAA: the binding signal is -0.0108 E-score.

Turning to AACTCCAT, the binding signal was -0.0692 E-score.

In the case of ATCTTTAG, the binding signal is -0.0521 E-score.

Turning to AGACTAGA, the binding signal is -0.172 E-score.

In the case of CCTACAAG, the binding signal is -0.0918 E-score.

For the sequence CTGTGATA, the binding signal is 0.134 E-score.

For the sequence GTCCTCGA, the binding signal was -0.059 E-score.

Turning to CTGGACTA, the binding signal is -0.0852 E-score.

As for CAGCTGCC, the binding signal is -0.27 E-score.

As to GGGCATAC, the binding signal turned out to be 0.0668 E-score.

As to GAAAGAGA, the binding signal is -0.101 E-score.

In the case of CGGGTAAG, the binding signal turned out to be 0.122 E-score.

For AGACGATC, the binding signal stood at 0.0546 E-score.

GAAGCCAA: the binding signal was -0.162 E-score.

For the sequence AAAGTAAG, the binding signal is -0.189 E-score.

For GACACCGA, the binding signal came out at 0.486 E-score.

For the sequence CCTACCAC, the binding signal came to 0.103 E-score.

With CAATGAGA, the binding signal was -0.134 E-score.

For the sequence AATAGCAG, the binding signal is -0.0433 E-score.

Consider ACCTGGAT, for which the binding signal was -0.0312 E-score.

With TTGACAAA, the binding signal is -0.208 E-score.

In the case of TATGACAA, the binding signal was -0.0361 E-score.

For CAGCTCTC, the binding signal is -0.217 E-score.

For ATACAAAC, the binding signal is -0.00168 E-score.

On to GCGCCTAC, for which the binding signal was -0.00798 E-score.

ATAAATAG: the binding signal was -0.125 E-score.

For the sequence CAGGAGAA, the binding signal is -0.179 E-score.

Consider CAAATAAA, for which the binding signal is -0.216 E-score.

On to CCCAAACA, for which the binding signal was found to be 0.208 E-score.

GTAGACTA: the binding signal is -0.176 E-score.

Consider AGGCGTAA, for which the binding signal worked out at 0.02 E-score.

For CTCAATGA, the binding signal was -0.215 E-score.

Consider AAGGACAG, for which the binding signal is -0.0924 E-score.

ATAGTCCG: the binding signal was -0.17 E-score.

Consider GAACGAAC, for which the binding signal stood at 0.0128 E-score.

On to GATCGGCA, for which the binding signal is -0.12 E-score.

Regarding CGTCCACG, the binding signal is -0.186 E-score.

With CGGCGGAC, the binding signal amounted to 0.142 E-score.

For the sequence AGCATCCT, the binding signal is -0.309 E-score.

Take ATCCTCCA: the binding signal turned out to be 0.0133 E-score.

Take GTTTCTCA: the binding signal was 0.103 E-score.

With CTGTCGCA, the binding signal was -0.0797 E-score.

For the sequence CGAAGAAA, the binding signal is -0.114 E-score.

Consider AACGTCGA, for which the binding signal was -0.183 E-score.

For the sequence ACGATCTA, the binding signal was 0.0591 E-score.

Turning to CAAGCAGG, the binding signal was -0.122 E-score.

Regarding ACCCCCAT, the binding signal is 0.272 E-score.

For the sequence AACCGACA, the binding signal was found to be 0.195 E-score.

Take CTACTGAC: the binding signal was -0.00274 E-score.

Consider ACATGCGA, for which the binding signal is -0.115 E-score.

As for AACAGACG, the binding signal was -0.168 E-score.

Turning to CATACGGA, the binding signal is -0.156 E-score.

As to GACTGCGC, the binding signal was -0.138 E-score.

For the sequence CTAGTGGC, the binding signal is -0.12 E-score.

For the sequence AAAGGCCT, the binding signal was -0.187 E-score.

For ATCAGCGG, the binding signal is -0.0432 E-score.

With CGGCCTGC, the binding signal was -0.178 E-score.

For CAAGGCGG, the binding signal turned out to be 0.0319 E-score.

CAGTTTGC: the binding signal is -0.139 E-score.

As to ATAACTCG, the binding signal was determined as 0.0367 E-score.

With CATCGAAG, the binding signal is -0.152 E-score.

CGCTTGAG: the binding signal is -0.282 E-score.

In the case of GGGTCGTA, the binding signal came to 0.148 E-score.

For the sequence CGGTGGAG, the binding signal was 0.0117 E-score.

As for AAAATTAG, the binding signal is -0.0966 E-score.

In the case of GATCTAAC, the binding signal is -0.0373 E-score.

In the case of CACTTGAC, the binding signal came out at 0.258 E-score.

With CCATCGCC, the binding signal was 0.0361 E-score.

On to ATGTAAAG, for which the binding signal was -0.221 E-score.

ACCACTAC: the binding signal is 0.178 E-score.

Take GCCTAAAA: the binding signal was -0.273 E-score.

For CAACTTCC, the binding signal is -0.215 E-score.

Take CGTTGGAA: the binding signal turned out to be 0.0366 E-score.

For the sequence CTACCACA, the binding signal is 0.154 E-score.

For AACATCTC, the binding signal was -0.181 E-score.

On to GGTTATCA, for which the binding signal amounted to 0.0949 E-score.

As for CAGTCCAC, the binding signal was -0.165 E-score.

Consider CATAGACG, for which the binding signal is -0.118 E-score.

Consider ACCTGCCG, for which the binding signal stood at 0.0491 E-score.

ACATAAAT: the binding signal was -0.0422 E-score.

As for AATATCCC, the binding signal is 0.00434 E-score.

As for CCCGCGAG, the binding signal was determined as 0.109 E-score.

Regarding GGCCGGTA, the binding signal amounted to 0.0744 E-score.

AAATTGTA: the binding signal was -0.218 E-score.

ACTGCCAC: the binding signal was -0.118 E-score.

CGTGTACA: the binding signal was 0.427 E-score.

As to ACGTCCAC, the binding signal was -0.268 E-score.

In the case of ACATTGTG, the binding signal came to 0.0609 E-score.

In the case of ATTGTCAG, the binding signal is 0.143 E-score.

Take AGTGTGTG: the binding signal turned out to be 0.197 E-score.

In the case of AACTTTGC, the binding signal is -0.139 E-score.

AAAAGATG: the binding signal was -0.304 E-score.

In the case of ATGTGATA, the binding signal was -0.0133 E-score.
